Measurements taken from the supplement of paper PMC6531468.
Some of the results follow. These are enrichments in a pooled selection; single values are uncertain. Scores sum up all selected molecules that hold the word; the word was not tested alone.

Experiments:
Assay in all cases: 6-mer SELEX enrichment z-score vs GST control; IMP3 is the RNA-binding protein IGF2BP3; higher = more enriched by binding
IMP3 KH1-4 = settings: construct: KH1-4 (164-579); SELEX round: R4
Protocol: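 SELEX-seq with GST-tagged IMP3 KH1-4 (Pro164-Lys579) and an N40 RNA pool, round 4. 6-mer z-score of sequence-tag enrichment normalised to the corresponding GST SELEX round; RNA k-mers written as DNA (T for U).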

IMP3 full-length = IMP3 full-length (UniProt O00425); settings: construct: FL IMP3 (1-579); SELEX round: R4
Protocol: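 SELEX-seq with GST-tagged full-length IMP3 and an N40 RNA pool, round 4. Each 6-mer is scored as an enrichment z-score of sequence tags containing it, normalised to the matching GST SELEX round. RNA written as DNA (T = U).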

IMP3 KH1-2 = settings: construct: KH1-2 (164-376); SELEX round: R4
Protocol: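 SELEX-seq with GST-tagged IMP3 KH1-2 (Pro164-Phe376) and an N40 RNA pool, round 4 (stringent 300/600 mM KCl washes). 6-mer z-score of sequence-tag enrichment normalised to the corresponding GST SELEX round; RNA k-mers written as DNA (T for U).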

IMP3 KH3-4 = settings: construct: KH3-4 (377-579); SELEX round: R4
Protocol: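 SELEX-seq with GST-tagged IMP3 KH3-4 (Pro377-Lys579) and an N40 RNA pool, round 4. 6-mer z-score of sequence-tag enrichment normalised to the corresponding GST SELEX round; RNA k-mers written as DNA (T for U).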

Chain of IMP3 KH3-4 (chain, as listed by the source): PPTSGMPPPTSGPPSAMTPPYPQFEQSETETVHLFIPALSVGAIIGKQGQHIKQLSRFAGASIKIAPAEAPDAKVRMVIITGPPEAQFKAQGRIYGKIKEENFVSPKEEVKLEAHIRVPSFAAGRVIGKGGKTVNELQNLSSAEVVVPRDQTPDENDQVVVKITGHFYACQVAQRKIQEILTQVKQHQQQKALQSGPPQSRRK
Chain of UniProt O00425 (O00425 whole entry): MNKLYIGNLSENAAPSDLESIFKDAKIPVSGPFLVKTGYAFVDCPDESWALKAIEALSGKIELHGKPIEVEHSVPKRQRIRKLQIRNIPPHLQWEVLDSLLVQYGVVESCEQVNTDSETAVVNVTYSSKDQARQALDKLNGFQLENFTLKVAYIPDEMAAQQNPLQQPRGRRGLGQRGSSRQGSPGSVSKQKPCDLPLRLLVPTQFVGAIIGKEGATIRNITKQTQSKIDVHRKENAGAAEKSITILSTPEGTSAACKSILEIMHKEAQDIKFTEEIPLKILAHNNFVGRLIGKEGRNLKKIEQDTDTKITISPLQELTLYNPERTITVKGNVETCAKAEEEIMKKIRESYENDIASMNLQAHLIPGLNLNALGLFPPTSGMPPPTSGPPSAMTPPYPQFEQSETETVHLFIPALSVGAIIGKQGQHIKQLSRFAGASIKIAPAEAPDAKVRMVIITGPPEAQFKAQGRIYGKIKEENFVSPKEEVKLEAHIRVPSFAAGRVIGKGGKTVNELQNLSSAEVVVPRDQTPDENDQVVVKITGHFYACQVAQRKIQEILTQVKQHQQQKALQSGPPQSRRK
Chain of IMP3 KH1-4 (chain, as listed by the source): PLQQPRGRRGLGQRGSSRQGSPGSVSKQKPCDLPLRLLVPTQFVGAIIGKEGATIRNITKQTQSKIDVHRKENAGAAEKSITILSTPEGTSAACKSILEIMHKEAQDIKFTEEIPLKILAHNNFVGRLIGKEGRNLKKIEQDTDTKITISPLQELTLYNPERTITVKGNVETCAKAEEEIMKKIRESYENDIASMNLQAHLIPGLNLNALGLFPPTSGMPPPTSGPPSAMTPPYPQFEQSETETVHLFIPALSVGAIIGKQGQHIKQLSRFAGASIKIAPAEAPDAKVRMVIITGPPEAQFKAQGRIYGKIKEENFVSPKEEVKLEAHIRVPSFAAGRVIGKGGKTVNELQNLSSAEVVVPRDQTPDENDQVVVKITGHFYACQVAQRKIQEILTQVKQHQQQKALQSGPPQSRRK
Chain of IMP3 KH1-2 (chain, as listed by the source): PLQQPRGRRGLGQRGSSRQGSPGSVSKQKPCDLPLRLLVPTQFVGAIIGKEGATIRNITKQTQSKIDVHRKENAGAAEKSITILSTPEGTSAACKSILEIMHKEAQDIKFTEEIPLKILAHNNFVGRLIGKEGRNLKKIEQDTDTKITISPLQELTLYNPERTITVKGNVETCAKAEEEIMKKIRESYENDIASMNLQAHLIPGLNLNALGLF

Row | Sequence | 6-mer SELEX enrichment z-score (IMP3 KH1-4) | 6-mer SELEX enrichment z-score (IMP3 full-length) | 6-mer SELEX enrichment z-score (IMP3 KH1-2) | 6-mer SELEX enrichment z-score (IMP3 KH3-4)
1 | AGATAC | 0.402 | -0.112 | 0.309 | 0.459
2 | GGGAAT | 0.747 | 0.115 | 0.707 | 0.928
3 | TACTTA | 0.456 | -0.123 | 0.529 | 0.69
4 | ATGGGG | 1.37 | 0.56 | 1.54 | 1.64
5 | GGACTA | 0.224 | -0.351 | 0.095 | 0.343
6 | AACAAC | 0.261 | 0.349 | 0.899 | 0.334
7 | CAAGCA | -0.125 | 0.874 | -0.221 | -0.334
8 | ATTGAC | 0.21 | -0.344 | 0.021 | 0.238
9 | GGGGCA | 1.42 | 1.21 | 1.71 | 1.4
10 | CATTAC | 1.31 | 1.4 | 1.49 | 1.05
11 | CGCTAT | 0.412 | 0.07 | 0.434 | 0.418
12 | CCGCAT | 0.662 | 0.95 | 0.684 | 0.006
13 | TCACCT | -0.248 | -0.272 | -0.214 | -0.564
14 | ACTCCA | -0.614 | -0.659 | -0.459 | -1.08
15 | GCCTCA | -0.89 | -0.043 | -0.806 | -0.954
16 | TAGTTT | -0.177 | -0.086 | -0.111 | 0.119
17 | GGTGCA | 0.22 | 0.344 | 0.163 | 0.194
18 | ACACAA | 1.81 | 2.63 | 2.77 | 1.28
19 | GTTCCA | 0.102 | -0.011 | 0.048 | -0.154
20 | CAAACA | 0.199 | 2.07 | 0.76 | -0.148

Row | Sequence | 6-mer SELEX enrichment z-score (IMP3 KH1-4) | 6-mer SELEX enrichment z-score (IMP3 full-length) | 6-mer SELEX enrichment z-score (IMP3 KH1-2) | 6-mer SELEX enrichment z-score (IMP3 KH3-4)
21 | AGCTTT | 0.004 | 0.003 | 0.063 | 0.125
22 | TGTAGC | -0.704 | -0.533 | -0.722 | -0.562
23 | CGTTTG | -0.554 | -0.287 | -0.445 | -0.352
24 | CTAGTG | -0.329 | -0.197 | -0.34 | -0.261
25 | ACGAGT | -1.79 | -0.904 | -1.73 | -1.51
26 | GGTTAG | 0.226 | 0.192 | 0.232 | 0.387
27 | CCCAAC | -2.73 | -2.16 | -2.48 | -3.43
28 | CTTCGA | -1.08 | -0.666 | -0.923 | -0.897
29 | GTAGTG | -0.647 | -0.409 | -0.586 | -0.441
30 | ATTTCA | 1.61 | 1.53 | 1.94 | 1.65
31 | CTATCA | 0.978 | 0.869 | 0.879 | 0.681
32 | TGACCT | -0.768 | -1.05 | -0.744 | -0.917
33 | TTACCG | -0.046 | -0.271 | -0.037 | -0.236
34 | AAACTA | 0.569 | -1.16 | 0.625 | 1.31
35 | AGGTTC | -0.013 | 0.153 | 0.012 | 0.148
36 | TATTCC | 0.719 | -0.174 | 0.671 | 0.449
37 | TCGGGG | 0.058 | 0.377 | 0.28 | 0.276
38 | GCGCGA | -0.507 | 0.185 | -0.444 | -0.409
39 | CTGTAC | -0.011 | -0.048 | -0.076 | -0.345
40 | AGCCGA | -1.55 | -0.746 | -1.42 | -1.44

Row | Sequence | 6-mer SELEX enrichment z-score (IMP3 KH1-4) | 6-mer SELEX enrichment z-score (IMP3 full-length) | 6-mer SELEX enrichment z-score (IMP3 KH1-2) | 6-mer SELEX enrichment z-score (IMP3 KH3-4)
41 | GGCCGA | -0.285 | 0.515 | -0.045 | 0.045
42 | GAACAG | 0.478 | 0.393 | 0.442 | 0.391
43 | TAGTGA | -0.134 | -0.408 | -0.307 | -0.005
44 | GTGGGA | 0.156 | 0.094 | 0.287 | 0.332
45 | TAATCC | 0.132 | -0.646 | 0.126 | -0.099
46 | AATGTA | 0.44 | -0.611 | 0.092 | 0.901
47 | GGAAAT | 0.737 | -0.418 | 0.384 | 1.13
48 | GTTTAA | 0.105 | -0.383 | 0.015 | 0.463
49 | ATGACG | 0.091 | -0.108 | -0.156 | 0.08
50 | ACGACG | -1.69 | -0.976 | -1.62 | -1.77
51 | CCCTCC | -0.506 | -0.991 | -0.081 | -1.23
52 | AGAATC | 0.106 | -0.092 | -0.05 | 0.19
53 | TATTAG | 0.888 | 0.284 | 0.678 | 1.19
54 | CTATGA | 0.342 | -0.584 | 0.166 | 0.464
55 | CGCTCA | -0.138 | 0.652 | 0.065 | -0.276
56 | CTTGAT | -0.228 | -0.305 | -0.264 | -0.1
57 | GGAGAA | 1.04 | -0.296 | 0.758 | 1.15
58 | CAGTAA | 0.696 | 0.624 | 0.635 | 0.666
59 | GGTGTT | -0.194 | 0.04 | -0.039 | 0.109
